The list shows a part of the results. Single values are uncertain, as repeats are few or missing.
Experiments:
Assay in all cases: cell count relative to DMSO control; melanoma cells; higher = more viable cells
Conditions in all cases: library dose: standard library concentration; 72 h
G361 = test system: G361
IPC-298 = test system: IPC-298
IST-MEL1 = test system: IST-MEL1
LB2518-MEL = test system: LB2518-MEL
LOXIMVI = test system: LOXIMVI
MEL-HO = test system: MEL-HO
MZ2-MEL = test system: MZ2-MEL
MeWo = test system: MeWo
RPMI7951 = test system: RPMI7951
RVH-421 = test system: RVH-421
SkMel28 = test system: SkMel28
SkMel2 = test system: SkMel2
SkMel30 = test system: SkMel30
SkMel5 = test system: SkMel5
UACC257 = test system: UACC257
UACC62 = test system: UACC62
WM115 = test system: WM115
WM1716 = test system: WM1716
WM1745 = test system: WM1745
WM3526 = test system: WM3526
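Further: cells treated in 1,536-well plates, then fixed and DAPI-stained, with nuclei counted from automated high-throughput microscope images.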

Row | SMILES | cell count (G361) [%] | cell count (IPC-298) [%] | cell count (IST-MEL1) [%] | cell count (LB2518-MEL) [%] | cell count (LOXIMVI) [%] | cell count (MEL-HO) [%] | cell count (MZ2-MEL) [%] | cell count (MeWo) [%] | cell count (RPMI7951) [%] | cell count (RVH-421) [%] | cell count (SkMel28) [%] | cell count (SkMel2) [%] | cell count (SkMel30) [%] | cell count (SkMel5) [%] | cell count (UACC257) [%] | cell count (UACC62) [%] | cell count (WM115) [%] | cell count (WM1716) [%] | cell count (WM1745) [%] | cell count (WM3526) [%]
1 | COc1cc([C@@H]2c3cc4c(cc3[C@@H](O[C@@H]3O[C@@H]5CO[C@@H](C)O[C@H]5[C@H](O)[C@H]3O)[C@H]3COC(=O)[C@H]23)OCO4)cc(OC)c1O [etoposide] + Cn1cc(C2=C(c3cn(C4CCN(Cc5ccccn5)CC4)c4ccccc34)C(=O)NC2=O)c2ccccc21 [Enzastaurin] (first compound 0.1 µM, partner dose 4 µM) | 105 | 70.8 | 120 | 90.6 | 97.9 | 128 | 96.9 | 80.9 | 85.1 | 86.8 | 72.1 | 81.4 | 96.5 | 90.7 | 57.9 | 42.6 | 88.4 | 49.5 | 92 | 101
2 | Cc1cn(-c2cc(NC(=O)c3ccc(C)c(Nc4nccc(-c5cccnc5)n4)c3)cc(C(F)(F)F)c2)cn1 [nilotinib] + N.N.[Cl][Pt][Cl] [cisplatin] (first compound 1 µM, partner dose 8 µM) | 83.3 | 86.2 | 72.3 | 71.7 | 121 | 82.9 | 85.1 | 84.7 | 81.6 | 78.7 | 62.2 | 73.5 | 68.5 | 78.3 | 83.4 | 65.7 | 85.7 | 83.2 | 77.9 | 82
3 | CCN(CC)CCCCNc1ncc2cc(-c3cc(OC)cc(OC)c3)c(NC(=O)NC(C)(C)C)nc2n1 + Cc1cc(SCc2sc(-c3ccc(C(F)(F)F)c(F)c3)nc2C)ccc1OCC(=O)O [GW0742] (first compound 0.5 µM, partner dose 10 µM) | 103 | 101 | 84.3 | 98.5 | 98.1 | 88 | 94.5 | 109 | 90.1 | 93.2 | 99.4 | 80.1 | 110 | 90.9 | 110 | 99.3 | 85.5 | 96.3 | 80.7 | 92.8
4 | CC1(C)NC(=O)N(c2ccc([N+](=O)[O-])c(C(F)(F)F)c2)C1=O [nilutamide] + O=C(Oc1ccc([N+](=O)[O-])cc1)N1CCC(C(O)(c2ccc3c(c2)OCO3)c2ccc3c(c2)OCO3)CC1 [JZL184] (first compound 5 µM, partner dose 5 µM) | 115 | 99.1 | 115 | 118 | 94.9 | 119 | 105 | 104 | 151 | 125 | 127 | 102 | 98 | 106 | 96.8 | 107 | 113 | 116 | 130 | 96.2
5 | OCCn1cc(-c2cnc3nnn(Cc4ccc5ncccc5c4)c3n2)cn1 + Cc1cc(SCc2sc(-c3ccc(C(F)(F)F)c(F)c3)nc2C)ccc1OCC(=O)O [GW0742] (first compound 5 µM, partner dose 10 µM) | 88 | 92.2 | 92.9 | 104 | 113 | 87.6 | 86.8 | 86.8 | 92 | 117 | 85.4 | 93.2 | 106 | 101 | 92.2 | 74.5 | 86.1 | 93.9 | 78.9 | 80.1
6 | CCN(CC)CCCCNc1ncc2cc(-c3cc(OC)cc(OC)c3)c(NC(=O)NC(C)(C)C)nc2n1 + C/C(O)=C(\C#N)C(=O)Nc1cc(Br)ccc1Br [LFM-A13] (first compound 0.5 µM, partner dose 10 µM) | 90.8 | 99.6 | 97.5 | 98.2 | 82.6 | 107 | 94.4 | 83.9 | 84.7 | 106 | 115 | 106 | 97.2 | 97.5 | 99.5 | 98.5 | 107 | 82.9 | 77 | 94
7 | O=C(Nc1cc(C(F)(F)F)cc(C(F)(F)F)c1)c1cc(Cl)ccc1O + C[C@]12O[C@H](C[C@]1(O)CO)n1c3ccccc3c3c4c(c5c6ccccc6n2c5c31)CNC4=O [Lestaurtinib] (first compound 0.08 µM, partner dose 0.02 µM) | 72.4 | 74 | 94.9 | 51.8 | 110 | 78.5 | 86.2 | 63.5 | 102 | 86.6 | 66.6 | 84.2 | 69.4 | 66.3 | 78.9 | 76.9 | 82 | 93.1 | 64 | 61.6
8 | CC(C)(C)c1cnc(CSc2cnc(NC(=O)C3CCNCC3)s2)o1 + O=C(Oc1ccc([N+](=O)[O-])cc1)N1CCC(C(O)(c2ccc3c(c2)OCO3)c2ccc3c(c2)OCO3)CC1 [JZL184] (first compound 0.05 µM, partner dose 5 µM) | 77.8 | 93.5 | 108 | 77.9 | 70.9 | 89.1 | 74.5 | 72.6 | 21.6 | 64.7 | 49.7 | 62.6 | 73.9 | 72.2 | 76.9 | 50.9 | 62.9 | 55 | 71.1 | 78.8
9 | CC[C@]1(O)C[C@H]2CN(CCc3c([nH]c4ccccc34)[C@@](C(=O)OC)(c3cc4c(cc3OC)N(C=O)[C@H]3[C@@](O)(C(=O)OC)[C@H](OC(C)=O)[C@]5(CC)C=CCN6CC[C@]43[C@@H]65)C2)C1 [vincristine] + C[C@]12O[C@H](C[C@]1(O)CO)n1c3ccccc3c3c4c(c5c6ccccc6n2c5c31)CNC4=O [Lestaurtinib] (first compound 0.0005 µM, partner dose 0.02 µM) | 73.3 | 65.9 | 93.5 | 63.2 | 68.7 | 58.9 | 89.3 | 78.9 | 64.2 | 88.1 | 60.5 | 70.8 | 47.8 | 46.9 | 71.6 | 60 | 45.7 | 41.2 | 84.7 | 42.8
10 | O=C(O)c1ccc(-c2c[nH]c3ncc(-c4ccccc4)cc23)cc1C1CCCC1 + C/C(O)=C(\C#N)C(=O)Nc1cc(Br)ccc1Br [LFM-A13] (first compound 0.8 µM, partner dose 10 µM) | 70.1 | 82.2 | 89.5 | 101 | 77.7 | 75.1 | 84 | 102 | 77.8 | 38.4 | 64 | 82.6 | 89 | 95.2 | 78.2 | 98.3 | 90.7 | 94.2 | 68.3 | 81.2
11 | CC1(C)CCC(c2ccc(Cl)cc2)=C(CN2CCN(c3ccc(C(=O)NS(=O)(=O)c4ccc(N[C@H](CCN5CCOCC5)CSc5ccccc5)c(S(=O)(=O)C(F)(F)F)c4)cc3)CC2)C1 + Cn1cc(C2=C(c3cn(C4CCN(Cc5ccccn5)CC4)c4ccccc34)C(=O)NC2=O)c2ccccc21 [Enzastaurin] (first compound 2 µM, partner dose 4 µM) | 35.4 | 67.4 | 21.5 | 17.7 | 44.5 | 42.4 | 69.7 | 78.1 | 11.4 | 6.89 | 10.8 | 16.4 | 74.1 | 89.3 | 33.4 | 72.6 | 92.1 | 32.7 | 13.6 | 77
12 | C/C(O)=C(\C#N)C(=O)Nc1cc(Br)ccc1Br + c1cc(-c2cnn3cc(-c4ccc(OCCN5CCCCC5)cc4)cnc23)ccn1 [Dorsomorphin] (first compound 10 µM, partner dose 2 µM) | 72.9 | 88.6 | 91.5 | 62.1 | 75.5 | 90.5 | 70.2 | 74.6 | 88.9 | 99.9 | 92.9 | 94.5 | 112 | 71.8 | 76.6 | 88.1 | 69.1 | 94.3 | 71.2 | 90.2
13 | CN(C)S(=O)(=O)c1ccc2c(c1)/C(=C/c1cc3c([nH]1)CCCC3)C(=O)N2 + O=C(Oc1ccc([N+](=O)[O-])cc1)N1CCC(C(O)(c2ccc3c(c2)OCO3)c2ccc3c(c2)OCO3)CC1 [JZL184] (first compound 2 µM, partner dose 5 µM) | 75.9 | 61.8 | 77.6 | 75.2 | 83.3 | 81.9 | 61.5 | 53.1 | 24.5 | 76.6 | 48.4 | 68.3 | 66.4 | 52.9 | 60.9 | 49.9 | 40.5 | 45.4 | 42.2 | 53.4
14 | N#Cc1c(O)c2c(-c3ccc(-c4ccccc4O)cc3)csc2[nH]c1=O + Cc1cc(SCc2sc(-c3ccc(C(F)(F)F)c(F)c3)nc2C)ccc1OCC(=O)O [GW0742] (first compound 10 µM, partner dose 10 µM) | 97 | 104 | 100 | 82.7 | 110 | 94.5 | 80.3 | 80.7 | 80 | 91.2 | 79.2 | 94.4 | 95.1 | 92.7 | 92.3 | 89 | 79.3 | 98 | 80.8 | 82.3
15 | Cc1ccc(Nc2nccc(N(C)c3ccc4c(C)n(C)nc4c3)n2)cc1S(N)(=O)=O [Pazopanib] + N.N.[Cl][Pt][Cl] [cisplatin] (first compound 2 µM, partner dose 8 µM) | 86.6 | 73.8 | 104 | 82.5 | 85.1 | 82.7 | 87.4 | 103 | 110 | 80.1 | 98 | 113 | 70.2 | 64.2 | 81.9 | 72.8 | 83.3 | 89 | 94.8 | 75.5

From the supplement of paper PMC4604168 (melanoma cell lines)
